Measurements from PubChem BioAssay AID1919009 (Molecular Pharmacology Branch, DTP, NCI, 2023).
Not every entry of the source has a single result; some have several. The list is limited to them. An entry can have further records. Values that stand side by side repeat one measurement (runs, samples, wells, individuals or studies). Marks such as (2×) stand for listed records that agree.

System: K24384-001-R-PDC complex spheroid growth
Test: Anticancer human tumor K24384-001-R-PDC patient-derived pancreatic adenocarcinoma cell line growth inhibition [AhR]
Details: stronger effect = lower value
From the text: Multicellular complex tumor spheroid response to aryl hydrocarbon receptor antagonists in combination with a variety of drugs and investigational agents in selected tumor cell lines
The current study was undertaken to assess response to aryl hydrocarbon receptor antagonists in combination with standard-of-care drugs and investigational agents in solid tumor complex spheroid models. Complex spheroids include a stromal component modeled by human endothelial cells (HUVEC) and fibroblasts modeled by human mesenchymal stem cells (MSCs). The concentration ranges selected for each drug and investigational agent were based upon clinically achievable concentrations if the clinical Cmax of the agent was known.
Compounds. The drugs and investigational agents: BAY 2416964 (NSC825713), GNF351 (NSC835774), CH-223191 (NSC835775), CPI-455 (NSC825282), aza-TdCyd (NSC777586), decitabine (NSC127716), belinostat (NSC758774), entinostat (NSC756642), pevonedistat (NSC761192), tazemetostat (NSC777109), talazoparib (NSC765396), olaparib (NSC753686), selinexor (NSC780203), nedisertib (M3814, NSC802822), bortezomib (NSC756655), venetoclax (NSC766270), doxorubicin (NSC123127), elimusertib (BAY189344, NSC800525), ceralasertib (AZD6738, NSC777638), TAK-243 (NSC785004), alisertib (NSC759677), etoposide (NSC141540), topotecan (NSC609699), eribulin (NSC707389), gemcitabine (NSC613327), carboplatin (NSC241240), cisplatin (NSC119875), and SN-38 (NSC673596) were obtained from the National Cancer Institute (NCI) Developmental Therapeutics Program Chemical Repository (32). The FDA-approved anticancer drug set is available from the Developmental Therapeutics Program at https://dtp.cancer.gov/organization/dscb/obtaining/available plates.htm. […] The stock solutions were prepared in dimethyl sulfoxide (DMSO, Sigma-Aldrich, St. Louis, MO, cat. D2650), except for the platinum compounds which were prepared in saline (Quality Biological, Gaithersburg, MD, cat. 114-055-101), at 800-fold the tested concentration and stored at -70 degrees C prior to their use. All drugs and investigational agents were tested over a range starting from a high concentration at or near the clinical Cmax and decreasing in half-log increments. If the clinical Cmax for an agent had not been determined, the highest concentration tested was 10 microM (Table 1).
Cell Culture. All cells were maintained in an incubator at 37 degrees C and 5% CO2 with 95% humidity. The PDC lines were cultured according to standard operating procedures established by the NCI PDMR (https://pdmr.cancer.gov). Briefly, all PDCs were thawed and cultured in Matrigel-coated flasks prepared with a working solution of 1X Ham's F-12 nutrient mix, without supplementation (Invitrogen, Waltham, MA, cat. 11765054), 100 U/mL penicillin-streptomycin (Invitrogen, cat. 15140122), and 2.5% Matrigel (Corning Inc., Corning, NY, cat. 354248) for the first three passages. All PDCs were cultured in complete DMEM/F-12 media containing advanced DMEM/F-12 (Invitrogen, cat. 12634028), 4.9% defined fetal bovine serum, heat inactivated (HyClone Laboratories Inc., Logan, UT, cat. SH30070.03HI), 389 ng/mL hydrocortisone (Sigma-Aldrich, cat. H4001), 9.7 ng/mL human EGF recombinant protein (Invitrogen, cat. PHG0313), 23.4 microg/mL adenine (Sigma-Aldrich, cat. A2786), 97.3 U/mL penicillin-streptomycin (Invitrogen, cat. 15140122), 1.9 mM L-glutamine (Invitrogen, cat. 25030081), and 9.7 microM Y-27632 dihydrochloride (Tocris Bioscience, Bristol, United Kingdom, cat. 1254). The PDCs were cultured in complete DMEM/F12 media without 10 microM Y-27632 dihydrochloride for at least two passages prior to the screen. The established cell lines NCI-H1341 and […] were cultured in DMEM/F-12, HEPES (Invitrogen, cat. 11330032), 5% defined fetal bovine serum (HyClone Laboratories Inc., cat. SH30070.03), ITS premix universal culture supplement [insulin (5 microg/mL), transferrin (5 microg/mL), and selenious acid (5 ng/mL)] […]
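Further: percent of DMSO vehicle-treated spheroid viability set as 100%.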

Structure (SMILES) | viability, T/C (compound alone 0.1 µM) | viability, T/C (compound alone 0.316 µM) | viability, T/C (compound alone 1 µM) | viability, T/C (compound alone 3.16 µM) | viability, T/C (compound alone 10 µM)
Cc1cncc(-c2nc(NCCc3c[nH]c4ccccc34)c3ncn(C(C)C)c3n2)c1 | 99.4, 85.1, 96.9, 103 (2×), 106, 93.8, 97, 100, 77.7, 110, 104, 94, 86.3, 96.2, 122, 107, 87, 93.7, 92.3% | 104 (2×), 86.6, 79, 82.2, 82.9, 115, 122, 90.6, 96.2, 118, 101, 108, 76.8, 114, 127, 124, 102, 94.8, 99.4% | 87, 93.2, 106, 91.7, 147, 109, 116, 110, 98.4, 108 (2×), 125, 99, 99.2, 94.8, 145, 135, 104, 95, 102% | 80.6, 77.9, 74.9, 75.3, 137, 71.5, 112, 108, 90.3, 86.6, 117, 88.5, 113, 79.4, 107, 96.7, 33.5, 69.5, 89.8, 68.6% | –
CC(CO)NC(=O)c1cc(-c2ccc(Cl)cc2)nn(-c2cnn(C)c2)c1=O (centres undefined) | 98.7, 105, 97.9, 103 (2×), 93.7, 90.6, 90.2, 84.8, 108, 93.3, 93.6, 88.4, 85.5, 83.1, 83.2, 93.8, 71.4, 94.8, 89.4% | 95.2, 106 (2×), 98.8, 93.8, 96.8, 84.4, 84, 85.3, 72, 103, 98, 94, 81.1, 117, 89.3, 96.2, 108, 83.6, 111, 92.8% | 75.6, 98, 85.2, 93.7, 93.2, 88.9, 82.5, 79.3, 78, 95 (2×), 98.9, 94.8, 106, 73.5, 96.5, 99.2, 110, 115, 82.8, 79.1% | 71.5, 83.6, 95.1, 85.3, 78.5, 68.2, 82.9, 73.7, 94.9, 105, 96.6, 97.6, 82.8, 115, 116, 89.5, 111, 75, 102% | 73.9, 61.1, 94.4, 110, 74.4, 58.2, 74.9, 74.8, 90.6, 98.1, 83, 103 (2×), 62.3, 98.7, 98.4, 92.2, 72.9, 91.8%
Cc1ccccc1N=Nc1ccc(NC(=O)c2ccnn2C)c(C)c1 | 102, 103, 87.8, 86.9, 95, 101 (2×), 94.3, 92.5, 104, 80.9, 108, 86.4, 95.9, 84.6, 88.7, 106, 86.5, 91.7% | 126, 102, 95.9, 89.2, 82.3, 85.1, 103 (2×), 100, 81.3, 75.4, 111, 108, 85.6, 90, 101, 116, 97.7, 87.1, 87.2% | 110, 92, 98.4, 92.7, 99.7, 109 (2×), 85.7, 103, 87, 93.6, 94.8, 88.4, 97.8, 116, 96.2, 91, 88.8, 79.8, 93.3% | 103 (2×), 86.5, 90.8, 89.9, 67.4, 100, 88.1, 78.6, 66.6, 86.2, 110, 87.5, 75.5, 73.5, 114, 88.4, 77.3, 63.5, 71.7% | 127, 76.7, 110, 96.2, 71, 119, 114, 79.9, 79.3, 80, 118, 99.7, 76, 87.5, 111, 125, 80.7, 91.2, 78.8, 86.9, 123%
